Measured values taken from the supplement of paper PMC3334620.
Whole data set: some 33,000 sequences, median “E-score (-0.5 to 0.5)” near -0.011, cut for the highest 2% near 0.28. This is one part of the list.

What follows are sequences tested against T1, Gcr1 (UniProt P07261) (assay: PBM E-score (8-mer binding enrichment) (E-score (-0.5 to 0.5)); higher = stronger / more preferred TF binding; most listed sequences are background and not binding sites). Conditions: protein concentration: 100 nM; construct: GST-full length.
T1 sequence: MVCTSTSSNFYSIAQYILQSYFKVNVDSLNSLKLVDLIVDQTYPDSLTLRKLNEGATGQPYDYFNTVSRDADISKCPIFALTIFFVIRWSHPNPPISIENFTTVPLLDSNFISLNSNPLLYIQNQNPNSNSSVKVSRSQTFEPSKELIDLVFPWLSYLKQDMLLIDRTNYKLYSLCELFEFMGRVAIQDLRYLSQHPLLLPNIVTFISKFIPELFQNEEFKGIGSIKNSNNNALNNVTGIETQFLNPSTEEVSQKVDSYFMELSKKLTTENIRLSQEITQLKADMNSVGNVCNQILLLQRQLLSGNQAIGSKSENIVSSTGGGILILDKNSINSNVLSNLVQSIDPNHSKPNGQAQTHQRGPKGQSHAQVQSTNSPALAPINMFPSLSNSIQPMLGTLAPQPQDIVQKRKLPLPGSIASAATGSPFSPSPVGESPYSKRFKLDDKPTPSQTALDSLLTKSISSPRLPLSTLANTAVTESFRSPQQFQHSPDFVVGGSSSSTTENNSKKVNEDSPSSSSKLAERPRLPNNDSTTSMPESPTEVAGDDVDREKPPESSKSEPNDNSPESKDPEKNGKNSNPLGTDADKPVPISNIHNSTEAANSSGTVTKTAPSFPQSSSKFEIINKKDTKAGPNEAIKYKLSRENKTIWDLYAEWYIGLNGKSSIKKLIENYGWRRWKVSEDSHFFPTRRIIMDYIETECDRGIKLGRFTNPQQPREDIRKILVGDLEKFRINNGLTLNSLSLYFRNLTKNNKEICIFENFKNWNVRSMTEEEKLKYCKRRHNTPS
Protocol: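 Universal 'all 10-mer' protein binding microarrays (Agilent AMADID 015681) probed with GST-tagged S. cerevisiae TFs (full-length or DBD) made by in vitro transcription/translation (PURExpress), about 100-200 nM. Bound TF was detected with fluorescent anti-GST. Each ungapped 8-mer (which stands for itself and its reverse complement) is scored by the PBM enrichment score (E-score), a modified Wilcoxon-Mann-Whitney statistic from -0.5 to +0.5, computed with the Universal PBM Analysis Suite. Scale: above 0.35 generally sequence-specific binding.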

Sequence	PBM E-score
GCCCTGCC	-0.211
CCCGGCAA	0.0205
AGGTGAGG	-0.234
CCGGCCGG	-0.0302
CTGAACGC	0.0642
CAATACGC	-0.0796
AGAAGTCC	-0.0409
ACTACTAG	0.195
AGGTATTA	-0.00935
TCGGCGAA	-0.0496
GCTTGCCA	-0.156
AGCGCGCT	0.0779
CTGAAGTC	0.106
ACTCTAAA	0.0638
CTACCGCA	-0.134
AAGAGGTG	0.051
ATTAAGTC	0.0201
CATAATCG	0.0132
AATGAAGT	-0.188
TCAAATGA	0.0254
ATATCGGG	0.0205
ACGGCGAG	-0.125
GGACTCTA	0.0953
ACGTGTAG	0.0676

Sequence	PBM E-score
ACCACGTG	0.0203
GCATCCCC	0.351
GCATACAA	0.0234
AACGGGAA	0.132
GCTTGATA	0.0882
ACCAGCGC	0.106
AAACATGG	-0.213
ATGCACAA	-0.0233
AGGGCAGC	0.0608
ATATGATG	0.024
GTTGTAAA	-0.0263
TCCTAAGA	0.0241
AGTCACCC	-0.206
CGTCGGTA	-0.15
GAATAAAA	0.00901
CAACCGGG	0.173
ATGAATAC	-0.0749
TCGCCCAA	0.121
CACATGGA	-0.21
TGATTCAA	0.0833
TGTGATAA	0.0317
AAGTGCAA	-0.149
ATTATTAA	0.204
CACGCCGG	-0.15

Sequence	PBM E-score
TGAAAAAA	0.272
CGTTTGCC	-0.264
AGATAATG	-0.00607
ATGAGGAC	0.0341
GCCATCGC	-0.139
TATACTGA	0.0283
ACAAAGTG	-0.155
CTCATAGA	-0.149
ACGCGCGG	0.00401
ACAATCGA	-0.0545
TAGCTCAA	0.104
TACCGTCA	-0.0779
AAAGTTGC	0.0082
CCTGGCGA	-0.047
ACCGTTTG	-0.054
AGGGGTCC	0.0751
AGGGCCCC	0.118
CGCCCAGA	0.102
TGAGCGCA	-0.0999
TATTTCAA	0.0319
CCTTAGGA	0.0836
CAACAGGC	0.0524
AATCCAGT	0.141
CGGAGGAA	-0.0935

Sequence	PBM E-score
TGGCAACA	0.123
ATTGTATA	0.012
AAGGGGGA	0.00731
AGGTCTTG	-0.102
TACGCGAA	0.194
CATGATGA	-0.0891
AGCATGTG	-0.11
TTGCACAA	-0.147
CGATCATC	-0.0473
AAGGCGGT	0.00689
AGGCTAGG	-0.291
AATAACTC	-0.011
AATAGTTC	0.0205
ACCGGTGC	-0.0668
CGCGGAAG	-0.136
GCATTGCC	-0.149
GGAACGTA	-0.0769
GGATCCAA	0.299
AAGTATCG	0.0344
CCCAGCCC	-0.0246
CCGCTAAA	0.0268
CCCTTACC	-0.0472
